The list shows a part of the results.
Assays:
Experiment in all cases: glycan array binding signal (z-score within array); higher = stronger binding
Conditions in all cases: glycan notation: IUPAC condensed, linker removed
[1] = target: Neu5Ac(a2-3)GalNAc
Procedure, shortened: (§1)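 Negative Z-scores can be read as non-binding. The Z-score is calculated within each array and then averaged across arrays of one protein sequence at different concentrations or buffers and across linkers. Arrays, 3228 in all, were curated from the Consortium for Functional Glycomics database and kept only where the protein sequence was available.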

[2] = target: Neu5Ac(a2-3)GalNAc(b1-4)GlcNAc
Procedure, shortened: as §1

[3] = target: Neu5Ac(a2-3)[GalNAc(b1-4)]Gal(b1-4)Glc
Procedure, shortened: as §1

[4] = target: Neu5Ac(a2-3)[GalNAc(b1-4)]Gal(b1-4)GlcNAc
Procedure, shortened: as §1

[5] = target: Neu5Ac(a2-3)[GalNAc(b1-4)]Gal(b1-4)GlcNAc(b1-3)GalNAc
Procedure, shortened: as §1

[6] = target: Neu5Ac(a2-3)[Neu5Ac(a2-6)]GalNAc
Procedure, shortened: as §1

[7] = target: Neu5Ac(a2-6)Gal
Procedure, shortened: as §1

[8] = target: Neu5Ac(a2-6)Gal(b1-3)GlcNAc(b1-3)[Gal(b1-4)GlcNAc(b1-6)]Gal(b1-4)Glc
Procedure, shortened: as §1

[9] = target: Neu5Ac(a2-6)Gal(b1-4)Glc
Procedure, shortened: as §1

[10] = target: Neu5Ac(a2-6)Gal(b1-4)GlcNAc
Procedure, shortened: as §1

[11] = target: Neu5Ac(a2-6)Gal(b1-4)GlcNAc(b1-2)Man
Procedure, shortened: as §1

[12] = target: Neu5Ac(a2-6)Gal(b1-4)GlcNAc(b1-2)Man(a1-3)Man(b1-4)GlcNAc(b1-4)GlcNAc
Procedure, shortened: as §1

[13] = target: Neu5Ac(a2-6)Gal(b1-4)GlcNAc(b1-2)Man(a1-3)[Gal(b1-4)GlcNAc(b1-2)Man(a1-6)]Man(b1-4)GlcNAc(b1-4)GlcNAc
Procedure, shortened: as §1

[14] = target: Neu5Ac(a2-6)Gal(b1-4)GlcNAc(b1-2)Man(a1-3)[GlcNAc(b1-2)Man(a1-6)]Man(b1-4)GlcNAc(b1-4)GlcNAc
Procedure, shortened: as §1

[15] = target: Neu5Ac(a2-6)Gal(b1-4)GlcNAc(b1-2)Man(a1-3)[GlcNAc(b1-4)][Neu5Ac(a2-6)Gal(b1-4)GlcNAc(b1-2)Man(a1-6)]Man(b1-4)GlcNAc(b1-4)GlcNAc
Procedure, shortened: as §1

[16] = target: Neu5Ac(a2-6)Gal(b1-4)GlcNAc(b1-2)Man(a1-3)[Man(a1-6)]Man(b1-4)GlcNAc(b1-4)GlcNAc
Procedure, shortened: as §1

[17] = target: Neu5Ac(a2-6)Gal(b1-4)GlcNAc(b1-2)Man(a1-3)[Neu5Ac(a2-3)Gal(b1-4)GlcNAc(b1-2)Man(a1-6)]Man(b1-4)GlcNAc(b1-4)GlcNAc
Procedure, shortened: as §1

[18] = target: Neu5Ac(a2-6)Gal(b1-4)GlcNAc(b1-2)Man(a1-3)[Neu5Ac(a2-6)Gal(b1-4)GlcNAc(b1-2)Man(a1-6)]Man(b1-4)GlcNAc(b1-4)GlcNAc
Procedure, shortened: as §1

[19] = target: Neu5Ac(a2-6)Gal(b1-4)GlcNAc(b1-2)Man(a1-3)[Neu5Ac(a2-6)Gal(b1-4)GlcNAc(b1-2)Man(a1-6)]Man(b1-4)GlcNAc(b1-4)[Fuc(a1-6)]GlcNAc
Procedure, shortened: as §1

[20] = target: Neu5Ac(a2-6)Gal(b1-4)GlcNAc(b1-2)Man(a1-6)Man(b1-4)GlcNAc(b1-4)GlcNAc
Procedure, shortened: as §1

[21] = target: Neu5Ac(a2-6)Gal(b1-4)GlcNAc(b1-2)Man(a1-6)[Gal(b1-4)GlcNAc(b1-2)Man(a1-3)]Man(b1-4)GlcNAc(b1-4)GlcNAc
Procedure, shortened: as §1

[22] = target: Neu5Ac(a2-6)Gal(b1-4)GlcNAc(b1-2)Man(a1-6)[GlcNAc(b1-2)Man(a1-3)]Man(b1-4)GlcNAc(b1-4)GlcNAc
Procedure, shortened: as §1

[23] = target: Neu5Ac(a2-6)Gal(b1-4)GlcNAc(b1-2)Man(a1-6)[Man(a1-3)]Man(b1-4)GlcNAc(b1-4)GlcNAc
Procedure, shortened: as §1

[24] = target: Neu5Ac(a2-6)Gal(b1-4)GlcNAc(b1-2)[Neu5Ac(a2-6)Gal(b1-4)GlcNAc(b1-4)]Man(a1-3)[GlcNAc(b1-4)][Neu5Ac(a2-6)Gal(b1-4)GlcNAc(b1-2)[Neu5Ac(a2-6)Gal(b1-4)GlcNAc(b1-6)]Man(a1-6)]Man(b1-4)GlcNAc(b1-4)GlcNAc
Procedure, shortened: as §1

[25] = target: Neu5Ac(a2-6)Gal(b1-4)GlcNAc(b1-2)[Neu5Ac(a2-6)Gal(b1-4)GlcNAc(b1-4)]Man(a1-3)[GlcNAc(b1-4)][Neu5Ac(a2-6)Gal(b1-4)GlcNAc(b1-4)Man(a1-6)]Man(b1-4)GlcNAc(b1-4)GlcNAc
Procedure, shortened: as §1

[26] = target: Neu5Ac(a2-6)Gal(b1-4)GlcNAc(b1-2)[Neu5Ac(a2-6)Gal(b1-4)GlcNAc(b1-6)]Man(a1-6)[Neu5Ac(a2-6)Gal(b1-4)GlcNAc(b1-2)Man(a1-3)][GlcNAc(b1-4)]Man(b1-4)GlcNAc(b1-4)GlcNAc
Procedure, shortened: as §1

[27] = target: Neu5Ac(a2-6)Gal(b1-4)GlcNAc(b1-3)Gal(b1-3)GlcNAc
Procedure, shortened: as §1

[28] = target: Neu5Ac(a2-6)Gal(b1-4)GlcNAc(b1-3)Gal(b1-4)GlcNAc
Procedure, shortened: as §1

[29] = target: Neu5Ac(a2-6)Gal(b1-4)GlcNAc(b1-3)Gal(b1-4)GlcNAc(b1-2)Man(a1-3)[Neu5Ac(a2-6)Gal(b1-4)GlcNAc(b1-3)Gal(b1-4)GlcNAc(b1-2)Man(a1-6)]GalNAc
Procedure, shortened: as §1

[30] = target: Neu5Ac(a2-6)Gal(b1-4)GlcNAc(b1-3)Gal(b1-4)GlcNAc(b1-3)Gal(b1-4)GlcNAc
Procedure, shortened: as §1

[31] = target: Neu5Ac(a2-6)Gal(b1-4)GlcNAc(b1-3)Gal(b1-4)GlcNAc(b1-3)Gal(b1-4)GlcNAc(b1-2)Man(a1-3)[Neu5Ac(a2-6)Gal(b1-4)GlcNAc(b1-3)Gal(b1-4)GlcNAc(b1-3)Gal(b1-4)GlcNAc(b1-2)Man(a1-6)]GalNAc
Procedure, shortened: as §1

[32] = target: Neu5Ac(a2-6)Gal(b1-4)GlcNAc(b1-3)Gal(b1-4)GlcNAc(b1-3)GalNAc
Procedure, shortened: as §1

[33] = target: Neu5Ac(a2-6)Gal(b1-4)GlcNAc(b1-3)Gal(b1-4)GlcNAc(b1-3)[Neu5Ac(a2-6)Gal(b1-4)GlcNAc(b1-3)Gal(b1-4)GlcNAc(b1-6)]GalNAc
Procedure, shortened: as §1

[34] = target: Neu5Ac(a2-6)Gal(b1-4)GlcNAc(b1-3)Gal(b1-4)GlcNAc(b1-6)[Gal(b1-3)]GalNAc
Procedure, shortened: as §1

[35] = target: Neu5Ac(a2-6)Gal(b1-4)GlcNAc(b1-3)Gal(b1-4)[Fuc(a1-3)]GlcNAc(b1-3)Gal(b1-4)[Fuc(a1-3)]GlcNAc
Procedure, shortened: as §1

[36] = target: Neu5Ac(a2-6)Gal(b1-4)GlcNAc(b1-3)GalNAc
Procedure, shortened: as §1

[37] = target: Neu5Ac(a2-6)Gal(b1-4)GlcNAc(b1-3)[Neu5Ac(a2-6)Gal(b1-4)GlcNAc(b1-6)]GalNAc
Procedure, shortened: as §1

[38] = target: Neu5Ac(a2-6)Gal(b1-4)GlcNAc(b1-6)GalNAc
Procedure, shortened: as §1

[39] = target: Neu5Ac(a2-6)Gal(b1-4)GlcNAc(b1-6)[Gal(b1-3)GlcNAc(b1-3)]Gal(b1-4)Glc
Procedure, shortened: as §1

[40] = target: Neu5Ac(a2-6)Gal(b1-4)GlcNAc(b1-6)[Gal(b1-3)]GalNAc
Procedure, shortened: as §1

[41] = target: Neu5Ac(a2-6)Gal(b1-4)GlcNAc6S
Procedure, shortened: as §1

[42] = target: Neu5Ac(a2-6)GalNAc
Procedure, shortened: as §1

[43] = target: Neu5Ac(a2-6)GalNAc(b1-4)GlcNAc
Procedure, shortened: as §1

[44] = target: Neu5Ac(a2-6)GalNAc(b1-4)GlcNAc6S
Procedure, shortened: as §1

[45] = target: Neu5Ac(a2-6)GlcNAc(b1-4)GlcNAc
Procedure, shortened: as §1

B1: PX15618A-bth-503-24-503 (Bacteroides thetaiotaomicron) (protein)
chain: NKSEDKLSGDDFWAQGNETNAEAFLLSIYNSFRNATMSQRPFLTYSGDMRCAPITAYSTGDKYVAYLANNDMGELRNTYPDDARGGLIMQWDVFYTAIQDANILLAEIDKVPGMDELKRSRFKAEAIFMRSLSYFFIVRAFGDVPYYTNAYNEAPLPRTNMVIVLQNCLADLQPLLDDDPGAEVLPWSYSSYSSKGIRASRGSVIALMMHINLWLVQFDAQNKEQYYRNVVSLGEELERNNGAYSLLDINRSSVIFAGGSDEGLFEIAQNINFNEIFMMNAKFSDNVSYSCLNKSMPLFCYSGDYLMTLFPMYEDDARKELWFDEKIYSTSVSSSAPKEIKKFWNIDTYGNGTITSNSGNQIVFRYAGALLLYAEALAALGTNDTKACELLNRVRNRAHASEINTSGSELMDAIFWERCRELIGEGHYYYDLVRTGKVYNRNYCMNPMTRTNFNVGAWTWPIHRNALKNNTQIGLNLFWE
B1 was tested, and the “glycan array binding signal (z-score)” value [1] was -0.79, the “glycan array binding signal (z-score)” value [2] was -0.191 and the “glycan array binding signal (z-score)” value [3] was -0.82. For the same binder, the “glycan array binding signal (z-score)” value [4] was -0.3, the “glycan array binding signal (z-score)” value [5] was 0.035 and the “glycan array binding signal (z-score)” value [6] was 0.168. The “glycan array binding signal (z-score)” value [7] was 0.446, the “glycan array binding signal (z-score)” value [8] was 0.092 and the “glycan array binding signal (z-score)” value [9] was -0.213. The “glycan array binding signal (z-score)” value [10] was 0.767, the “glycan array binding signal (z-score)” value [11] was -0.432 and the “glycan array binding signal (z-score)” value [12] was 0.401. For the same binder, the “glycan array binding signal (z-score)” value [13] was -0.781, the “glycan array binding signal (z-score)” value [14] was -0.438 and the “glycan array binding signal (z-score)” value [15] was -0.755. For the same binder, the “glycan array binding signal (z-score)” value [16] was -0.239, the “glycan array binding signal (z-score)” value [17] was 0.015 and the “glycan array binding signal (z-score)” value [18] was -0.217. For the same binder, the “glycan array binding signal (z-score)” value [19] was 0.509, the “glycan array binding signal (z-score)” value [20] was 0.441 and the “glycan array binding signal (z-score)” value [21] was -0.623. For the same binder, the “glycan array binding signal (z-score)” value [22] was -0.445, the “glycan array binding signal (z-score)” value [23] was -0.52 and the “glycan array binding signal (z-score)” value [24] was 0.469. For the same binder, the “glycan array binding signal (z-score)” value [25] was -0.142, the “glycan array binding signal (z-score)” value [26] was 0.131 and the “glycan array binding signal (z-score)” value [27] was 0.473. For the same binder, the “glycan array binding signal (z-score)” value [28] was 0.689, the “glycan array binding signal (z-score)” value [29] was -0.462 and the “glycan array binding signal (z-score)” value [30] was -0.165. For the same binder, the “glycan array binding signal (z-score)” value [31] was -0.063, the “glycan array binding signal (z-score)” value [32] was -0.315 and the “glycan array binding signal (z-score)” value [33] was -0.704. The “glycan array binding signal (z-score)” value [34] was -0.735, the “glycan array binding signal (z-score)” value [35] was -0.033 and the “glycan array binding signal (z-score)” value [36] was -0.554. The “glycan array binding signal (z-score)” value [37] was -0.196, the “glycan array binding signal (z-score)” value [38] was 0.431 and the “glycan array binding signal (z-score)” value [39] was -0.284. The “glycan array binding signal (z-score)” value [40] was 0.246, the “glycan array binding signal (z-score)” value [41] was -0.659 and the “glycan array binding signal (z-score)” value [42] was -0.265. The “glycan array binding signal (z-score)” value [43] was -0.169, the “glycan array binding signal (z-score)” value [44] was -0.041 and the “glycan array binding signal (z-score)” value [45] was 0.284.

Source: the supplement of paper PMC8728848
